The supplement of paper PMC12217912
Some of the results follow. The full chains were built here from the parent and the listed change. Inactive controls read about 0.05.

B1: TEV protease; numbered along this chain (parent)
chain: MGESLFKGPRDYNPISSSICHLTNESDGHTTSLYGIGFGPFIITNKHLFRRNNGTLVVQSLHGVFKVKDTTTLQQHLVDGRDMIIIRMPKDFPPFPQKLKFREPQREERICLVTTNFQTKSMSSMVSDTSCTFPSGDGIFWKHWIQTKDGQCGSPLVSTRDGFIVGIHSASNFTNTNNYFTSVPKNFMELLTNQEAQQWVSGWRLNADSVLWGGHKVFMVKPEEPFQPVKEATQL

Variants of: B1
Assay: raw area under fraction-flipped curve 0-4 h after induction (AUC4h, not background-subtracted), DNA-recorder readout of cleavage of the substrate (dimensionless); higher = more cleavage of the substrate by the protease variant
Details: temperature: 34 °C; time window: 0-4 h after rhamnose induction
Protocol: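 In vivo DNA recorder in E. coli TOP10(DE3) ΔrhaA at 34 °C. Each TEVp single-site mutant (parent TEVp 0) is paired with a single-site variant of the 7-mer TEVs (canonical ENLYFQ|S). The substrate sits between flexible linkers in a Bxb1-sfGFP-TEVs-SsrA fusion, so cleavage stabilises Bxb1 and speeds flipping of a recombination array, read by NGS. The value is the raw area under the fraction-flipped curve over 0-4 h after rhamnose induction (AUC4h), with ≥20 reads per time point. It is not background-subtracted; inactive controls average about 0.047.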
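Further: Bxb1 expression induced with 0.2% (w/v) L-rhamnose at OD600 near 0.5, cultures sampled hourly, flipped fraction per protease–substrate barcode pair counted by paired-end Illumina sequencing.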

Variant | area with substrate ENLYFQA | area with substrate ENLYFQK | area with substrate ENLYFQN | area with substrate ENLYFQR | area with substrate ENLYFQS | area with substrate ENLYFQT | area with substrate ENLYFQW | area with substrate ENLYFQD | area with substrate ENLYFQH | area with substrate ENLYFQI | area with substrate ENLYFQP | area with substrate ENLYFQY | area with substrate ENLYFQC | area with substrate ENLYFQE | area with substrate ENLYFQF | area with substrate ENLYFQG | area with substrate ENLYFQL | area with substrate ENLYFQM | area with substrate ENLYFQQ | area with substrate ENLYFQV
MGESLFKGPRDYNPISSSICHLTNESDGHTTSLYGIGFGPFIITNKHLFRRNNGTLVVQSLHGVFKVKDTTTLQQHLVDGRDMIIIRMPKDFPPFPQKLKFREPQREERICLVTTNFQTKSMSSMVSDTSCTFPSGDGIFWKHWIQTKDGQCGMPLVSTRDGFIVGIHSASNFTNTNNYFTSVPKNFMELLTNQEAQQWVSGWRLNADSVLWGGHKVFMVKPEEPFQPVKEATQL [S154M] | 0.096 | 0.063 | 0.0627 | 0.0534 | 0.0953 | 0.0592 | 0.0603 | – | – | – | – | – | – | – | – | – | – | – | – | –
MGESLFKGPRDYNPISSSICHLTNESDGHTTSLYGIGFGPFIITNKHLFRRNNGTLVVQSLHGVFKVKDTTTLQQHLVDGRDMIIIRMPKDFPPFPQKLKFREPQREERICLVTTNFQTKSMSSMVSDTSCTFPSGDGIFWKHWIQTKDGQCGLPLVSTRDGFIVGIHSASNFTNTNNYFTSVPKNFMELLTNQEAQQWVSGWRLNADSVLWGGHKVFMVKPEEPFQPVKEATQL [S154L] | 0.181 | – | 0.0872 | 0.067 | 0.137 | 0.0645 | 0.0672 | 0.111 | 0.102 | 0.0587 | 0.0628 | 0.0756 | – | – | – | – | – | – | – | –
MGESLFKGPRDYNPISSSICHLTNESDGHTTSLYGIGFGPFIITNKHLFRRNNGTLVVQSLHGVFKVKDTTTLQQHLVDGRDMIIIRMPKDFPPFPQKLKFREPQREERICLVTTNFQTKSMSSMVSDTSCTFPSGDGIFWKHWIQTKDGQCGCPLVSTRDGFIVGIHSASNFTNTNNYFTSVPKNFMELLTNQEAQQWVSGWRLNADSVLWGGHKVFMVKPEEPFQPVKEATQL [S154C] | 0.1 | 0.0598 | 0.0829 | 0.0614 | 0.104 | – | 0.0538 | 0.0587 | 0.0905 | 0.0613 | 0.0785 | 0.0783 | 0.121 | 0.0597 | 0.0683 | 0.0944 | 0.0632 | 0.0909 | 0.0896 | 0.0521
MGESLFKGPRDYNPISSSICHLTNESDGHTTSLYGIGFGPFIITNKHLFRRNNGTLVVQSLHGVFKVKDTTTLQQHLVDGRDMIIIRMPKDFPPFPQKLKFREPQREERICLVTTNFQTKSMSSMVSDTSCTFPSGDGIFWKHWIQTKDGQCGFPLVSTRDGFIVGIHSASNFTNTNNYFTSVPKNFMELLTNQEAQQWVSGWRLNADSVLWGGHKVFMVKPEEPFQPVKEATQL [S154F] | 0.0774 | – | 0.0688 | – | 0.0833 | 0.0709 | – | – | – | 0.0582 | – | 0.0519 | – | 0.0844 | – | – | 0.0586 | – | – | –
MGESLFKGPRDYNPISSSICHLTNESDGHTTSLYGIGFGPFIITNKHLFRRNNGTLVVQSLHGVFKVKDTTTLQQHLVDGRDMIIIRMPKDFPPFPQKLKFREPQREERICLVTTNFQTKSMSSMVSDTSCTFPSGDGIFWKHWIQIKDGQCGSPLVSTRDGFIVGIHSASNFTNTNNYFTSVPKNFMELLTNQEAQQWVSGWRLNADSVLWGGHKVFMVKPEEPFQPVKEATQL [T147I] | 0.0658 | 0.0592 | – | 0.0312 | 0.0854 | 0.0637 | 0.0689 | – | 0.0609 | 0.0445 | – | 0.0728 | 0.0915 | – | – | – | 0.0528 | 0.0643 | – | –
MGESLFKGPRDYNPISSSICHLTNESDGHTTSLYGIGFGPFIITNKHLFRRNNGTLVVQSLHGVFKVKDTTTLQQHLVDGRDMIIIRMPKDFPPFPQKLKFREPQREERICLVTTNFQTKSMSSMVSDTSCTFPSGDGIFWKHWIQWKDGQCGSPLVSTRDGFIVGIHSASNFTNTNNYFTSVPKNFMELLTNQEAQQWVSGWRLNADSVLWGGHKVFMVKPEEPFQPVKEATQL [T147W] | 0.0655 | 0.0604 | 0.0584 | 0.0548 | 0.0603 | 0.0247 | 0.0562 | 0.0584 | – | 0.06 | – | – | 0.0622 | 0.0691 | 0.0738 | 0.0626 | 0.0539 | 0.061 | 0.0584 | 0.0562
MGESLFKGPRDYNPISSSICHLTNESDGHTTSLYGIGFGPFIITNKHLFRRNNGTLVVQSLHGVFKVKDTTTLQQHLVDGRDMIIIRMPKDFPPFPQKLKFREPQREERICLVTTNFQTKSMSSMVSDTSCTFPSGDGIFWKHWIQTKDGQCGSPSVSTRDGFIVGIHSASNFTNTNNYFTSVPKNFMELLTNQEAQQWVSGWRLNADSVLWGGHKVFMVKPEEPFQPVKEATQL [L156S] | 0.0646 | 0.0525 | 0.0628 | 0.0579 | 0.0651 | – | – | 0.0621 | – | 0.06 | – | – | 0.062 | – | 0.0704 | – | 0.0412 | – | – | 0.0565
MGESLFKGPRDYNPISSSICHLTNESDGHTTSLYGIGFGPFIITNKHLFRRNNGTLVVQSLHGVFKVKDTTTLQQHLVDGRDMIIIRMPKDFPPFPQKLKFREPQREERICLVTTNFQTKSMSSMVSDTSCTFPSGDGIFWKHWIQTKDGQCGSPGVSTRDGFIVGIHSASNFTNTNNYFTSVPKNFMELLTNQEAQQWVSGWRLNADSVLWGGHKVFMVKPEEPFQPVKEATQL [L156G] | 0.0738 | – | 0.0561 | 0.0397 | 0.0547 | 0.0523 | – | – | – | 0.0518 | 0.0551 | – | 0.0624 | – | – | – | 0.044 | 0.0628 | – | 0.0413
MGESLFKGPRDYNPISSSICHLTNESDGHTTSLYGIGFGPFIITNKHLFRRNNGTLVVQSLHGVFKVKDTTTLQQHLVDGRDMIIIRMPKDFPPFPQKLKFREPQREERICLVTTNFQTKSMSSMVSDTSCTFPSGDGIFWKHWIQTKDGQCGSPLVDTRDGFIVGIHSASNFTNTNNYFTSVPKNFMELLTNQEAQQWVSGWRLNADSVLWGGHKVFMVKPEEPFQPVKEATQL [S158D] | 0.0784 | 0.0617 | 0.0752 | 0.0544 | 0.0798 | – | 0.0535 | – | 0.0449 | – | – | 0.0617 | 0.0926 | – | 0.0537 | – | 0.0636 | – | – | 0.0579
MGESLFKGPRDYNPISSSICHLTNESDGHTTSLYGIGFGPFIITNKHLFRRNNGTLVVQSLHGVFKVKDTTTLQQHLVDGRDMIIIRMPKDFPPFPQKLKFREPQREERICLVTTNFQTKSMSSMVSDTSCTFPSGDGIFWKHWIQTKDGGCGSPLVSTRDGFIVGIHSASNFTNTNNYFTSVPKNFMELLTNQEAQQWVSGWRLNADSVLWGGHKVFMVKPEEPFQPVKEATQL [Q151G] | 0.119 | 0.0614 | 0.0601 | 0.0516 | 0.111 | 0.0707 | – | 0.0603 | 0.0495 | 0.0618 | 0.0634 | – | 0.113 | – | – | 0.119 | – | 0.0795 | – | 0.0822
